Each structure is given as a SMILES string. The whole screen tested about 39,000 compounds, of which about 220 (0.56%) showed activity. This is one part of the list.
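Note: static incubation at 37 °C against the wild-type strain, values averaged over two biological replicates.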

In the experiment the test system is Escherichia coli K-12 BW25113. The experiment can be described thus: relative growth (OD600 normalised to plate interquartile mean) (fraction); higher = less growth inhibition, active = 0.2 or less. As to conditions: 50 µM; LB; incubation time: overnight (16-24 h).
Consider `CCc1ccccc1C(=O)N1CCC[C@@H](Cn2cc(C(C)(C)N)nn2)C1`, for which the relative growth is inactive: 1.01.

Regarding `C[C@@H]1CN([C@@H](C)CO)C(=O)c2cc(NC(=O)C3CC3)ccc2O[C@H]1CN(C)S(=O)(=O)c1cccs1`, the relative growth is inactive: 1.01.

On to `CC(C)=CCC/C(C)=C/CC1=C(C)C(=O)c2ccccc2C1=O`, for which the relative growth was inactive: 0.911.

On to `NCCS(=O)(=O)O`, for which the relative growth was inactive: 1.1.

Turning to `Cc1ccc(S(=O)(=O)Nc2cccc3c2O[C@@H](CN(C)S(=O)(=O)c2cccs2)[C@H](C)CN([C@H](C)CO)C3=O)cc1`, the relative growth was inactive: 0.999.

Turning to `O=C1NC(=O)[C@H]2CC[C@H]2N1`, the relative growth was inactive: 0.965.

Take `CN(C)CCCNC(=O)C[C@H]1CC[C@@H]2[C@@H](COc3ccc(NC(=O)c4ccc5c(c4)OCO5)cc3C(=O)N2C)O1`: the relative growth is inactive: 0.933.

For `COc1ccccc1NC(=O)N(C)C[C@@H]1Oc2ncc(C#CCN(C)C)cc2C(=O)N([C@@H](C)CO)C[C@H]1C`, the relative growth is inactive: 0.991.

In the case of `CCCNC(=O)Nc1ccc2c(c1)C(=O)N(C)C[C@@H](OC)[C@@H](C)CN(Cc1ccc(-c3ccccn3)cc1)[C@H](C)CO2`, the relative growth is inactive: 0.98.

In the case of `CCOC(=O)[C@H]1C/C=C/C[C@H](C(=O)OCC)C(=O)O[C@H]2[C@@H](OC)O[C@H](CO)[C@@H](OC(=O)Nc3ccccc3)[C@@H]2OC1=O`, the relative growth is inactive: 1.01.

As to `C[C@H]1CCCCO[C@@H](CN(C)C(=O)c2ccncc2)[C@@H](C)CN([C@@H](C)CO)C(=O)c2cc(NC(=O)NC3CCCCC3)ccc2O1`, the relative growth is inactive: 0.997.

Consider `C[C@@H]1CCCCO[C@@H](CN(C)C(=O)Nc2ccc(F)cc2)[C@@H](C)CN([C@H](C)CO)C(=O)c2cc(NC(=O)CCC(F)(F)F)ccc2O1`, for which the relative growth is inactive: 1.03.

Take `Cc1noc(C)c1S(=O)(=O)Nc1ccc2c(c1)C(=O)N([C@@H](C)CO)C[C@@H](C)[C@@H](CN(C)S(=O)(=O)c1cccs1)O2`: the relative growth is inactive: 1.01.

`Nc1cccc2c(=O)[nH][nH]c(=O)c12`: the relative growth was inactive: 1.01.

`O=C(NCCN1CCOCC1)c1ccc(Cl)c(S(=O)(=O)N2CCOCC2)c1`: the relative growth is inactive: 1.01.

On to `Cc1noc(C)c1S(=O)(=O)Nc1ccc2c(c1)C(=O)N([C@@H](C)CO)C[C@H](C)[C@H](CN(C)Cc1ccc(Cl)c(Cl)c1)OCCCC[C@@H](C)O2`, for which the relative growth is inactive: 0.976.

Regarding `COC(=O)CNc1nc(OC)nc(N(C)C)n1`, the relative growth is inactive: 0.909.

Take `C[C@H]1CN([C@@H](C)CO)C(=O)CCCn2cc(nn2)CO[C@H]1CN(C)Cc1ccc2c(c1)OCCN2C`: the relative growth is inactive: 0.982.

In the case of `Cn1cnc(S(=O)(=O)N[C@H]2CC[C@H](CC(=O)Nc3ccccc3)O[C@@H]2CO)c1`, the relative growth was inactive: 1.

Regarding `C[C@H]1CN([C@@H](C)CO)C(=O)c2cccc(NC(=O)Nc3ccc(C(F)(F)F)cc3)c2O[C@@H]1CN(C)S(=O)(=O)c1ccc(Cl)cc1`, the relative growth was inactive: 0.786.

`COC(=O)[C@@H](NC(=O)Cn1cc(CCC(=O)NO)nn1)c1ccccc1`: the relative growth is inactive: 0.982.

In the case of `C[C@H](CO)N1C[C@H](C)[C@H](CN(C)Cc2ccccc2)Oc2c(NC(=O)c3ccc(-c4nccs4)cc3)cccc2C1=O`, the relative growth was inactive: 1.03.

For `Oc1c(I)cc(I)c2cccnc12`, the relative growth is inactive: 1.04.

For `C[C@@H]1CCCCO[C@@H](CN(C)Cc2ccc(C(F)(F)F)cc2)[C@H](C)CN([C@@H](C)CO)C(=O)c2cc(NS(=O)(=O)c3ccccc3)ccc2O1`, the relative growth is inactive: 1.01.

For `CC(C)N(C)C(=O)c1cccc(NC(=O)c2ccncc2)c1OCCCN(C)Cc1ccc(Oc2ccccc2)cc1`, the relative growth is inactive: 1.04.

With `COCC(=O)N(C)C[C@H]1Oc2cc(-c3ccc(C#N)cc3)ccc2S(=O)(=O)N([C@@H](C)CO)C[C@@H]1C`, the relative growth is inactive: 1.01.

As for `CCOC(=O)c1nonc1N`, the relative growth was inactive: 1.01.

Consider `O=C(Nc1cccc([N+](=O)[O-])c1)C(=O)NC1CC1`, for which the relative growth was inactive: 1.04.

As to `COc1ccc(NC(=O)Nc2ccc3c(c2)C(=O)N([C@@H](C)CO)C[C@@H](C)[C@@H](CN(C)C(=O)CCC(F)(F)F)OCCCC[C@@H](C)O3)cc1`, the relative growth is inactive: 0.961.

For the compound `O=C(C[C@H]1CC[C@@H](NC(=O)CN2CCOCC2)[C@H](CO)O1)NC1CCC1`, the relative growth is inactive: 0.967.

With `C=CCC[C@H](Cc1ccc(F)cc1)C(=O)OC[C@H]1CCCN1C(=O)[C@H](CC=C)CC(=O)N(CCO)Cc1ccccc1`, the relative growth was inactive: 1.07.

Take `COc1ccc(NC(=O)N(C)C[C@H]2OCCCC[C@@H](C)Oc3ccc(NS(=O)(=O)c4ccc(OC)cc4)cc3C(=O)N([C@@H](C)CO)C[C@@H]2C)cc1`: the relative growth is inactive: 1.02.

As for `C[C@@H]1CN([C@@H](C)CO)C(=O)Cc2cc(NC(=O)CCCCCC(=O)Nc3ccccc3N)ccc2O[C@H]1CN(C)Cc1ccccc1`, the relative growth is inactive: 1.03.

As for `O=C(C[C@H]1CC[C@@H]2[C@H](COC[C@H](O)CN2S(=O)(=O)c2ccc(F)cc2)O1)NCCN1CCCCC1`, the relative growth was inactive: 1.

Take `O=C(C[C@@H]1CC[C@@H]2[C@H](COC[C@H](O)CN2C(=O)c2ccccc2)O1)N1CCOCC1`: the relative growth is inactive: 0.973.

Consider `Cc1ccc(S(=O)(=O)N(C)C[C@H]2OCCCC[C@@H](C)Oc3ccc(NC(=O)c4ccccc4)cc3C(=O)N([C@@H](C)CO)C[C@H]2C)cc1`, for which the relative growth was inactive: 1.02.

For the compound `C[C@H](CO)N1C[C@H](C)[C@H](CN(C)Cc2ccc(-c3ccccc3)cc2)Oc2ccc(NC(=O)CCCCCC(=O)Nc3ccccc3N)cc2C1=O`, the relative growth was inactive: 0.97.

Take `O=c1nc(NCc2cccnc2)cn[nH]1`: the relative growth was inactive: 1.04.

In the case of `C[C@@H]1CCCCO[C@H](CN(C)C(=O)Cc2ccccc2)[C@H](C)CN([C@@H](C)CO)C(=O)c2cc(NC(=O)c3ccccc3)ccc2O1`, the relative growth was inactive: 1.

Regarding `C[C@H](CO)N1C[C@H](C)[C@@H](CN(C)C(=O)Nc2cccc3ccccc23)Oc2ccc(NS(=O)(=O)c3cccs3)cc2C1=O`, the relative growth was inactive: 0.993.

Regarding `O=C(O)Cc1nnc(-c2ccncc2)[nH]1`, the relative growth is inactive: 1.

In the case of `C(=CN1CCN(C(c2ccccc2)c2ccccc2)CC1)Cc1ccccc1`, the relative growth was inactive: 1.03.

Turning to `O=C(CCCCCCC(=O)Nc1ccccc1O)N/N=C/c1cc(Br)c(O)c(Br)c1`, the relative growth was inactive: 0.932.
